Results taken from PubChem BioAssay AID1347428 (National Center for Advancing Translational Sciences (NCATS), 2020).
Out of some 91,000 compounds screened, about 290 (0.32%) were called active. This list was built around the results that the source calls inconclusive (neither active nor inactive); the mix of calls is not that of the screen. The call rests on the fitted dose curve; in most records, active means well fitted inhibition curve with a large enough effect; inconclusive means small, poorly fitted or top-dose-only effect; inactive means no such curve, though single readings can be large or run the other way. Potencies of inconclusive entries are doubtful fits and often do not repeat.

These molecules were tested against Single-stranded DNA cytosine deaminase (Homo sapiens) (UniProt Q9GZX7) (assay: Primary qHTS assay for inhibitors of Activation Induced Cytidine Deaminase (AID): AID signal). Settings: AID deamination FRET fluorescence, UDG-coupled, 4 h; series mostly up to 115 µM.
Further: nearly all actives have a fitted effect of over 25% in size.
Potency means the concentration at half of the fitted maximal effect; tags describe the fitted curve by direction and shape.

UniProt Q9GZX7, sequence (Q9GZX7 whole entry, looked up): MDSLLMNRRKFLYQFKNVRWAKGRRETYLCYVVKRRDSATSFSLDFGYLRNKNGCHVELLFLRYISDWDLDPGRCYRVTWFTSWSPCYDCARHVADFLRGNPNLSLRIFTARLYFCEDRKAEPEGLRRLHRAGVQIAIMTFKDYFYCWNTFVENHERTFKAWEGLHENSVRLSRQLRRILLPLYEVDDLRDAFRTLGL

Row | SMILES | Potency
1 | COc1ccccc1NC(=O)C1=C(C)Nc2nc(SC)nn2C1c1cccnc1 (stereo unspecified) | inactive
2 | CC(C)(C)C1CCc2c(sc(NC(=O)c3ccccc3F)c2C(=O)NCc2ccco2)C1 (stereo unspecified) | active: 11.2 µM
3 | O=C(NCCn1cc(SCc2ccccc2)c2ccccc21)c1cccs1 | inconclusive: 11.2 µM [inhibitor, full curve]
4 | Clc1ccc2c(N/N=C/c3cccs3)ccnc2c1 | inactive
5 | CCn1c(C(=O)N2CCC(C(=O)N3CCN(c4ccc(OC)cc4)CC3)CC2)cc2sccc21 | inconclusive: 50.1 µM [inhibitor, partial curve, poor fit]
6 | COc1ccc(S(=O)(=O)N(CC(=O)Nc2cc(C)cc(C)c2)c2ccc(Cl)cc2)cc1 | inactive
7 | CCc1ccccc1N1CC(c2nc3ccccc3n2CCOc2ccc(Cl)c(C)c2)CC1=O (stereo unspecified) | inconclusive: 31.6 µM [inhibitor, partial curve, poor fit]
8 | O=C(c1cccn1-c1nnc(N2CCCCC2)s1)N1CCN(c2ccc(Cl)cc2)CC1 | inconclusive: 35.5 µM [inhibitor, partial curve, poor fit]
9 | CC1=C(/C=C/C(C)=C/C=C/C(C)=C/C(=O)Nc2ccc(O)cc2)C(C)(C)CCC1 | inactive
10 | CC(C)Oc1ccc(NC(=O)c2cc3ccccc3o2)cc1 | inconclusive: 39.8 µM [inhibitor, single point]
11 | CC(C)(C)OC(=O)N1CCC(c2c(C(=O)NCc3ccccc3)cnn2-c2ccc(F)cc2)CC1 | inconclusive: 100 µM [inhibitor, partial curve, poor fit]
12 | Cc1ccc(N2CCN(C(=O)c3c(C)oc4ncnc(N5CCCCC5)c34)CC2)c(C)c1 | inconclusive: 79.4 µM [inhibitor, partial curve]
13 | CC(C)c1ccc(NC(=O)N2CCN(c3ccc(Cl)c(Cl)c3)CC2)cc1 | inconclusive: 28.2 µM [inhibitor, partial curve, poor fit]
14 | Cc1nc2c(-c3ccccc3)c(C)nn2c(C)c1CCC(=O)NCCc1ccccc1 | inconclusive: 12.6 µM [inhibitor, partial curve, poor fit]
15 | O=C(NCc1ccccc1Cl)C1CCCN(C(=O)c2cnn(-c3ccc(F)cc3)c2-n2cccc2)C1 (stereo unspecified) | inconclusive: 8.91 µM [inhibitor, partial curve, poor fit]
16 | CC(C)c1ccc(-c2csc(Nc3ccc(C(=O)O)c(O)c3)n2)cc1 | inconclusive: 89.1 µM [inhibitor, single point]
17 | CCOc1ccc(NCc2nc3ccccc3n2CCOc2ccc(C)cc2)cc1 | inconclusive: 14.1 µM [inhibitor, partial curve, poor fit]
18 | Cc1cc2nc(/C(C#N)=C/c3cccc(C(F)(F)F)c3)[nH]c2cc1C | inactive
19 | O=[N+]([O-])c1cc(N=Cc2cccnc2)cc2ccc3ccccc3c12 | inactive
20 | CC(C)(C)CC(=O)NCCCCNC(=O)CC(C)(C)C | inactive
21 | CCCOc1ccc(-c2cc(C(F)(F)F)c(C#N)c(SCCC(=O)O)n2)cc1 | active: 79.4 µM

Row | SMILES | Potency
22 | Cc1ccc(-c2noc(-c3cccc(F)c3)n2)cc1 | inactive
23 | CCCCCn1cc2c(c1-c1ccccc1Br)c(=O)n(C)c(=O)n2C | inconclusive: 56.2 µM [inhibitor, partial curve, poor fit]
24 | COc1ccc(C(=O)NCc2ccc3c(c2)CCN3C(=O)c2ccc(F)cc2)cc1 | inconclusive: 11.2 µM [inhibitor, partial curve, poor fit]
25 | CC(C)CN(CC(C)C)CC(O)Cn1cc(/C=C/C(=O)c2ccccc2)c2ccccc21 (stereo unspecified) | inconclusive: 17.8 µM [inhibitor, full curve, poor fit]
26 | COc1ccccc1CNC(=O)COCc1cc(-c2ccc3c(c2)OCO3)on1 | inconclusive: 50.1 µM [inhibitor, partial curve, poor fit]
27 | Cc1ccc(-c2noc(CSc3nnc(C)n3-c3ccc(C)c(C)c3)n2)cc1 | inconclusive: 50.1 µM [inhibitor, partial curve, poor fit]
28 | CSc1cccc(NC(=O)/C=C/c2cccc(F)c2)c1 | inactive
29 | Cc1n[nH]c(C)c1S(=O)(=O)Nc1cccc([N+](=O)[O-])c1 | inactive
30 | Cc1c(Cl)cccc1NC(=O)CSc1nc(=O)n(Cc2ccco2)c2c1CCC2 | inconclusive: 56.2 µM [inhibitor, partial curve, poor fit]
31 | Cc1ccc2oc(C(=O)N(Cc3sccc3C)C3CCS(=O)(=O)C3)c(C)c2c1 (stereo unspecified) | inconclusive: 56.2 µM [inhibitor, partial curve, poor fit]
32 | CCCCN(C)C(=O)CSc1nc2ccccc2nc1Cc1ccc(C)cc1 | inconclusive: 25.1 µM [inhibitor, full curve, poor fit]
33 | O=C(NCCc1ccc(Cl)cc1)c1ccc(CS(=O)(=O)c2ccc(Cl)cc2)o1 | inconclusive: 25.1 µM [inhibitor, partial curve, poor fit]
34 | CCCS(=O)(=O)c1c(S(=O)(=O)CCC)c2cc(C(C)(C)C)ccn2c1C(=O)c1ccccc1 | inconclusive: 11.2 µM [inhibitor, full curve, poor fit]
35 | Cc1ccc(Cn2c(CO)cnc2SCC(=O)Nc2ccc(C)c(Cl)c2)cc1 | inconclusive: 39.8 µM [inhibitor, single point]
36 | COc1ccc(NC(=O)c2ccc(C3Nc4ccccc4S(=O)(=O)N3)cc2)cc1OC (stereo unspecified) | inactive
37 | Cc1ccc(S(=O)(=O)CC(=O)N2CCN(c3nc4c(F)cccc4s3)CC2)cc1 | inconclusive: 39.8 µM [inhibitor, full curve, poor fit]
38 | COc1ccccc1C(=O)Nc1ccc(C(=O)OCc2cc(=O)n3nc(C4CC4)sc3n2)cc1 | inactive
39 | N#Cc1cccnc1SCc1cccc(C(F)(F)F)c1 | inactive
40 | COc1ccc(N2C(=O)CSC23C(=O)N(CC(=O)NCCc2ccccc2)c2ccccc23)cc1 (stereo unspecified) | inconclusive: 79.4 µM [inhibitor, partial curve, poor fit]
41 | O=C(CSc1ncnc2nc(N3CCOCC3)sc12)Nc1cc(C(F)(F)F)ccc1Cl | inactive
